This sample is rich in variants without activity.
B1: TPR 5TU (parent)
chain: GGAUCUUCUCGAUCUAACAAAAAAGACAAAUCUGCCACAAAGCUUGAGAGCAUCUUCGGAUGCAGAGGCGGCAGCCUUCGGUGGCGCGAUAGCGCCAACGUUCUCAACUAUGACACGCAAAACGCGUGCUCCGUUGAAUGGAGUUUAUCAUG

Variants of: B1
Assay: polymerase ribozyme fitness, log enrichment relative to wild type (log ratio); higher = more active; in vitro selection for triplet polymerase activity
How it was run: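 Both subunits of a heterodimeric triplet polymerase ribozyme were given their own mutant library, built by PCR and transcribed. Each library was annealed with a biotinylated primer, the partner subunit and triplets, incubated frozen at −7 °C, and its extended constructs gel-excised, captured on streptavidin beads and amplified by RT-PCR, all in one round done in triplicate. Fitness is the logarithm of genotype enrichment relative to wild-type enrichment, with replicates averaged by inverse-variance weighting. That logarithm is base 2, and Illumina-sequenced genotypes needed ≥10 input reads and ≥1 read per output.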

Question: For C38U U148C, which “polymerase ribozyme fitness (log ratio)” value is on record?
Answer: -1.36

Question: Which “polymerase ribozyme fitness (log ratio)” value does the source give for C38U G59A U77C here?
Answer: ≤ -4.2

Question: Which “polymerase ribozyme fitness (log ratio)” value does the source give for A40C U53A here?
Answer: 0.24

Question: With A40C C87U G112U as the variant, how does the “polymerase ribozyme fitness (log ratio)” value read?
Answer: ≤ -4.2

Question: With A40C G92U G94A as the variant, how does the “polymerase ribozyme fitness (log ratio)” value read?
Answer: 0.834

Question: With A39G C51U A52U G74A as the variant, how does the “polymerase ribozyme fitness (log ratio)” value read?
Answer: ≤ -4.2

Question: Which “polymerase ribozyme fitness (log ratio)” value does the source give for A39U G48C C54U C85A here?
Answer: ≤ -4.2

Question: For A39U A107G G140C, which “polymerase ribozyme fitness (log ratio)” value is on record?
Answer: ≤ -4.2

Question: Which “polymerase ribozyme fitness (log ratio)” value does the source give for C38G U56A A64G A91G A150G here?
Answer: ≤ -4.2

Question: For C38A A122U A137G G141U A142G, which “polymerase ribozyme fitness (log ratio)” value is on record?
Answer: -3.83

Question: Which “polymerase ribozyme fitness (log ratio)” value does the source give for A40C G46U A73G C75G C79U C96U A106G A137G here?
Answer: ≤ -4.2

Question: For A39G A49C C57A, which “polymerase ribozyme fitness (log ratio)” value is on record?
Answer: ≤ -4.2

Question: Which “polymerase ribozyme fitness (log ratio)” value does the source give for A40C A64U C114A here?
Answer: ≤ -4.2

Question: For A40U A52G G58C C75U G141U, which “polymerase ribozyme fitness (log ratio)” value is on record?
Answer: -2.07

Question: Which “polymerase ribozyme fitness (log ratio)” value does the source give for A40U A122C here?
Answer: 0.0565

Question: With C38G A52G G62A U135G as the variant, how does the “polymerase ribozyme fitness (log ratio)” value read?
Answer: ≤ -4.2

Question: Which “polymerase ribozyme fitness (log ratio)” value does the source give for C38A C96U C118A A137C here?
Answer: ≤ -4.2

Question: For A40C A41U C99U C125A, which “polymerase ribozyme fitness (log ratio)” value is on record?
Answer: -2.04

Question: For C38G A52G A106G G140U, which “polymerase ribozyme fitness (log ratio)” value is on record?
Answer: ≤ -4.2

Question: Which “polymerase ribozyme fitness (log ratio)” value does the source give for A39C A91U G94A G133C A142U U145A U148A here?
Answer: ≤ -4.2

Question: With C38A C87A as the variant, how does the “polymerase ribozyme fitness (log ratio)” value read?
Answer: ≤ -4.2

Question: For A40G A115G A137G C149U, which “polymerase ribozyme fitness (log ratio)” value is on record?
Answer: -4.02

Question: Which “polymerase ribozyme fitness (log ratio)” value does the source give for A39G A91U A120C U139G G141U here?
Answer: ≤ -4.2

Question: With A40C U44A G83A U101C G141U G152U as the variant, how does the “polymerase ribozyme fitness (log ratio)” value read?
Answer: ≤ -4.2

Question: With A40C A52U C57U G67U as the variant, how does the “polymerase ribozyme fitness (log ratio)” value read?
Answer: ≤ -4.2

Question: For C38U A52G A73U G152U, which “polymerase ribozyme fitness (log ratio)” value is on record?
Answer: -4.12

Question: Which “polymerase ribozyme fitness (log ratio)” value does the source give for A39U G71A C76A G80U C103G C149G here?
Answer: ≤ -4.2

Question: With A39C G59A C87U U127A C129G U139G as the variant, how does the “polymerase ribozyme fitness (log ratio)” value read?
Answer: ≤ -4.2

Question: Which “polymerase ribozyme fitness (log ratio)” value does the source give for C38U U61A C69A G94C U127G here?
Answer: ≤ -4.2

Question: For C38U U56A A147C, which “polymerase ribozyme fitness (log ratio)” value is on record?
Answer: -0.21

Question: For A39U C51G U55G U61G C85U C99U, which “polymerase ribozyme fitness (log ratio)” value is on record?
Answer: ≤ -4.2

Question: With A40U A49C C72A C95U C99G A138C as the variant, how does the “polymerase ribozyme fitness (log ratio)” value read?
Answer: ≤ -4.2

Question: For C38U A60C G94C A110G C114U C125A, which “polymerase ribozyme fitness (log ratio)” value is on record?
Answer: ≤ -4.2

Question: For A39C U61G C75U G88A A89C A98U, which “polymerase ribozyme fitness (log ratio)” value is on record?
Answer: ≤ -4.2

Question: With C38U A41G G58A as the variant, how does the “polymerase ribozyme fitness (log ratio)” value read?
Answer: 1.52

Question: Which “polymerase ribozyme fitness (log ratio)” value does the source give for C38U G50A A52U G68U G80A A97G A137U here?
Answer: ≤ -4.2

Question: For A40G U102C U139G G140U, which “polymerase ribozyme fitness (log ratio)” value is on record?
Answer: ≤ -4.2

Question: With C38U A52C A60G A119G as the variant, how does the “polymerase ribozyme fitness (log ratio)” value read?
Answer: 0.129

Question: With A40G C149A as the variant, how does the “polymerase ribozyme fitness (log ratio)” value read?
Answer: -3.98

Question: With C38G C54G U82C U146A as the variant, how does the “polymerase ribozyme fitness (log ratio)” value read?
Answer: -1.88

Question: Which “polymerase ribozyme fitness (log ratio)” value does the source give for A40C C54G G92A A121U C132U U146A here?
Answer: ≤ -4.2

Question: For A40U A64C C72U C85A G94C, which “polymerase ribozyme fitness (log ratio)” value is on record?
Answer: ≤ -4.2

Question: For C38U A110U, which “polymerase ribozyme fitness (log ratio)” value is on record?
Answer: -3.7

Question: For A40C A41C G58C A91U G124A C125A, which “polymerase ribozyme fitness (log ratio)” value is on record?
Answer: ≤ -4.2

Question: With A40C A91U C96G as the variant, how does the “polymerase ribozyme fitness (log ratio)” value read?
Answer: ≤ -4.2

Question: Which “polymerase ribozyme fitness (log ratio)” value does the source give for A40G A52C A66U C75G C79G A120C here?
Answer: ≤ -4.2

Question: Which “polymerase ribozyme fitness (log ratio)” value does the source give for A40C C93A C99U G133C here?
Answer: -3.98

Question: Which “polymerase ribozyme fitness (log ratio)” value does the source give for A39G G58C A91U A97C here?
Answer: ≤ -4.2

Question: For C38A C54G C69G G70A A138G, which “polymerase ribozyme fitness (log ratio)” value is on record?
Answer: ≤ -4.2

Question: Which “polymerase ribozyme fitness (log ratio)” value does the source give for A39U C75G G92U G124C C149G here?
Answer: ≤ -4.2

Question: With A39C C76U G83U U104C as the variant, how does the “polymerase ribozyme fitness (log ratio)” value read?
Answer: ≤ -4.2

Question: For A39C U45G A64U G65A, which “polymerase ribozyme fitness (log ratio)” value is on record?
Answer: ≤ -4.2

Question: For A40G C75G, which “polymerase ribozyme fitness (log ratio)” value is on record?
Answer: -4.09

Question: With C38U U82C C85U U90G C99U C105U C108G A120G as the variant, how does the “polymerase ribozyme fitness (log ratio)” value read?
Answer: ≤ -4.2

Question: With A39G C103G G126U as the variant, how does the “polymerase ribozyme fitness (log ratio)” value read?
Answer: ≤ -4.2

Question: For A40C G71A, which “polymerase ribozyme fitness (log ratio)” value is on record?
Answer: ≤ -4.2

Question: For A39G A40G G68A G100A C114U C118G A138U, which “polymerase ribozyme fitness (log ratio)” value is on record?
Answer: ≤ -4.2

Question: For A40U A49G C63U C87U A107U U139G, which “polymerase ribozyme fitness (log ratio)” value is on record?
Answer: ≤ -4.2

Question: For C38U A121C G136C A138U U148G, which “polymerase ribozyme fitness (log ratio)” value is on record?
Answer: ≤ -4.2

Question: Which “polymerase ribozyme fitness (log ratio)” value does the source give for A40G U82G here?
Answer: -1.38

Question: For C38U C87U, which “polymerase ribozyme fitness (log ratio)” value is on record?
Answer: -1.19

Question: With A39U G81A C99U U104C G117A as the variant, how does the “polymerase ribozyme fitness (log ratio)” value read?
Answer: -3.48

Question: With A40G A137C G141U U144A as the variant, how does the “polymerase ribozyme fitness (log ratio)” value read?
Answer: ≤ -4.2

Question: With C38U G65A C75G C93A as the variant, how does the “polymerase ribozyme fitness (log ratio)” value read?
Answer: ≤ -4.2

Question: For A40U A52C C85G U111C G140U A150C, which “polymerase ribozyme fitness (log ratio)” value is on record?
Answer: ≤ -4.2

Question: For C38G G70C C125G G140A, which “polymerase ribozyme fitness (log ratio)” value is on record?
Answer: ≤ -4.2

Question: Which “polymerase ribozyme fitness (log ratio)” value does the source give for A40C A52G U82A G92U A106U here?
Answer: -3.38

Question: Which “polymerase ribozyme fitness (log ratio)” value does the source give for C38G G59A U127A U139A here?
Answer: ≤ -4.2

Question: For C38U U45A C51G G81C U101C A106C A137G G143A U144C, which “polymerase ribozyme fitness (log ratio)” value is on record?
Answer: ≤ -4.2

Question: For A40C U146G, which “polymerase ribozyme fitness (log ratio)” value is on record?
Answer: -0.247

Question: Which “polymerase ribozyme fitness (log ratio)” value does the source give for A39U C99U C125G U134C A138G here?
Answer: ≤ -4.2

Question: Which “polymerase ribozyme fitness (log ratio)” value does the source give for A39U A41U C57U A60C C87A here?
Answer: ≤ -4.2

Question: With A39G U134G as the variant, how does the “polymerase ribozyme fitness (log ratio)” value read?
Answer: -3.86

Question: For A40U C54A A110G A120U, which “polymerase ribozyme fitness (log ratio)” value is on record?
Answer: -4.07

Question: Which “polymerase ribozyme fitness (log ratio)” value does the source give for C38A C43G C54A A91G C96U A150U here?
Answer: ≤ -4.2

Question: For C38G G140C, which “polymerase ribozyme fitness (log ratio)” value is on record?
Answer: -4.11

Question: For C38U C85A G117C, which “polymerase ribozyme fitness (log ratio)” value is on record?
Answer: -0.0326

Question: With A40C U56A G128C as the variant, how does the “polymerase ribozyme fitness (log ratio)” value read?
Answer: -3.92

Question: For C38U U44C A49U G50A U77G C93U A121U U145A, which “polymerase ribozyme fitness (log ratio)” value is on record?
Answer: ≤ -4.2

Question: Which “polymerase ribozyme fitness (log ratio)” value does the source give for A40G G42A C85G U109A A113C G140A here?
Answer: ≤ -4.2

Question: With A40U A106G as the variant, how does the “polymerase ribozyme fitness (log ratio)” value read?
Answer: 0.3

Question: For A40C C76U C95A C131G G141U, which “polymerase ribozyme fitness (log ratio)” value is on record?
Answer: -1.68

Question: With A40U A91G as the variant, how does the “polymerase ribozyme fitness (log ratio)” value read?
Answer: -3.33

Question: Which “polymerase ribozyme fitness (log ratio)” value does the source give for A40U A60G G112C here?
Answer: ≤ -4.2
